Out of some 200,000 compounds screened, about 860 (0.43%) were called active. Inconclusive means that the source gave no clear call. Such entries were picked first, then a sample of the others. Calls follow the shape of the dose curve; as a rule, active = well fitted inhibition curve with a large enough effect; inconclusive = small, poorly fitted or top-dose-only effect; inactive = flat fitted curve, though single readings scatter. Potencies of inconclusive entries are doubtful fits and often do not repeat.
These compounds were tested against Cruzipain (Trypanosoma cruzi) (UniProt P25779) (assay: qHTS Assay for Promiscuous and Specific Inhibitors of Cruzain (with detergent)). Conditions: purified cruzain, Z-FR-AMC fluorescence, 0.01% Triton.
How it was run: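 Compounds were screened in titration against cruzain (1.5 nM) with 0.01% Triton X-100 to counter colloidal aggregation. Activity was the AMC fluorescence increase over 60 s after adding 2 uM Z-FR-AMC at pH 5.5.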
Also: nearly all actives have a fitted effect of over 40% in size.
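For max response, negative = inhibition in this document: plate controls were neutral wells for no effect and buffer without enzyme for full effect.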
Potency is read from the fitted curve at half-maximal effect; tags tell the direction and shape of the fitted curve.

Sequence of UniProt P25779 (P25779 whole entry, looked up): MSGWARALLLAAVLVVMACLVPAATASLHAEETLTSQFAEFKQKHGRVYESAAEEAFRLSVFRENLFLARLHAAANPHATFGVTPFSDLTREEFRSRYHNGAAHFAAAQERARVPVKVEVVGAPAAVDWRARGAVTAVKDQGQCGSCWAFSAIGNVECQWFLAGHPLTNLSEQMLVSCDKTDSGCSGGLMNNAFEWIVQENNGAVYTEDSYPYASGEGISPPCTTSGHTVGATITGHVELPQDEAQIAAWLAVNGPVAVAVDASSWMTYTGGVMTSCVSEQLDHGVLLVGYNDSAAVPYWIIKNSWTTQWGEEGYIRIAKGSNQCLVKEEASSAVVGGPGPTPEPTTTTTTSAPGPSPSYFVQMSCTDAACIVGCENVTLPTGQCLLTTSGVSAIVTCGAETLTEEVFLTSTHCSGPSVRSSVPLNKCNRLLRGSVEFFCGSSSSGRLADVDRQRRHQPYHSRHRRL

**Q.** `Cc1ccc(C(NC(=O)N2CC(C)OC(C)C2)C(Cl)Cl)cc1F` (centres undefined) was tested. Which max response, negative = inhibition did it give?
**A.** Its max response, negative = inhibition is inactive: 7.01%.

**Q.** With `CC(/C=C/c1ccc(N(C)C)cc1)=N\N=C(/N)SC1CC(=O)N(c2ccc(C(=O)O)cc2)C1=O` (centres undefined) as the compound, how does the Potency read?
**A.** Its Potency is inconclusive: 28.2 µM [inhibitor, single point].

**Q.** For `CN(C)c1ccc(C(=O)OCC(=O)Nc2ccc(S(N)(=O)=O)cc2)cc1`, which Potency is on record?
**A.** The Potency was inconclusive: 28.2 µM [inhibitor, single point].

**Q.** How did the Potency turn out when `c1ccc(Cn2c(-c3ccco3)nc3nc4ccccc4nc32)cc1` was run?
**A.** Its Potency is inconclusive: 28.2 µM [inhibitor, single point].

**Q.** With `COc1cc2ccccc2cc1C(=O)Nc1ccc2oc(-c3ccccc3)nc2c1` as the compound, how does the max response, negative = inhibition read?
**A.** Its max response, negative = inhibition is inactive: -4.9%.

**Q.** How did the Potency turn out when `CCOC(=O)N1C2C=C(C)[C@@H]2[C@@H]2CC(=O)N21` (some centres undefined) was run?
**A.** The Potency was active: 14.1 µM.

**Q.** Which Potency does the source give for `CCCC(=O)OCCNc1cc(SCc2ccco2)c2nonc2c1[N+](=O)[O-]` here?
**A.** The Potency was active: 25.1 µM.

**Q.** How did the Potency turn out when `O=c1c(-c2ccc(F)cc2)nc2cnc(N3CCNCC3)nc2n1-c1ccccc1` was run?
**A.** The Potency was inconclusive: 22.4 µM [inhibitor, single point].

**Q.** `Cn1c(=O)c2c(nc(N/N=C/c3ccc(OC(=O)c4ccco4)cc3)n2Cc2ccccc2Cl)n(C)c1=O` was tested. Which Potency did it give?
**A.** The Potency was inconclusive: 28.2 µM [inhibitor, single point].

**Q.** For `Cc1c(NC(=O)c2cccc(-c3cc4ccccc4oc3=O)c2)cccc1-c1nc2ncccc2o1`, which max response, negative = inhibition is on record?
**A.** The max response, negative = inhibition was inactive: -1.83%.

**Q.** Which Potency does the source give for `CCOC(=O)c1cc2c(=O)n3ccccc3nc2n(CCCOC)c1=NC(=O)C(C)(C)C` here?
**A.** The Potency was inconclusive: 31.6 µM [inhibitor, single point].

**Q.** With `COc1ccc(N2C(=O)C(Cl)=C(N3CCN(Cc4ccccc4)CC3)C2=O)cc1` as the compound, how does the Potency read?
**A.** Its Potency is active: 17.8 µM.

**Q.** With `CCc1cnc2c(c1SCC(=O)NCc1ccc(C)cc1)c(=O)n(C)c(=O)n2C` as the compound, how does the max response, negative = inhibition read?
**A.** The max response, negative = inhibition was inactive: 0.0985%.

**Q.** How did the Potency turn out when `CC1(C)SC2c3ccccc3C(=O)N2[C@@H]1C(=O)NCc1ccco1` (some centres undefined) was run?
**A.** Its Potency is inconclusive: 35.5 µM [inhibitor, single point].

**Q.** `COc1ccccc1NC(=O)c1sc(-c2ccc(Cl)cc2)cc1N` was tested. Which Potency did it give?
**A.** Its Potency is inconclusive: 28.2 µM [inhibitor, single point].

**Q.** For `Clc1ccc2[nH]c3c(NCC4CCCO4)ncnc3c2c1` (centres undefined), which Potency is on record?
**A.** The Potency was inconclusive: 20 µM [inhibitor, partial curve].

**Q.** `COc1ccc2nc(SCC(=O)NC3CCCc4ccccc43)[nH]c2c1` (centres undefined) was tested. Which Potency did it give?
**A.** Its Potency is active: 14.1 µM.

**Q.** With `Cc1ccc(C(=O)N/C(=C\c2ccccc2)C(=O)OCc2ccccc2)cc1` as the compound, how does the Potency read?
**A.** Its Potency is inconclusive: 12.6 µM [inhibitor, partial curve].

**Q.** `Cc1cccc(C(=O)Nc2ccccc2OCc2cc(=O)n3ccccc3n2)c1` was tested. Which max response, negative = inhibition did it give?
**A.** The max response, negative = inhibition was inactive: 5.47%.

**Q.** Which Potency does the source give for `CC(C)(C)c1ccc(S(=O)(=O)c2cnc(SCC(=O)Nc3ccc4c(c3)OCCO4)[nH]c2=O)cc1` here?
**A.** Its Potency is inconclusive: 31.6 µM [inhibitor, single point].

**Q.** Which max response, negative = inhibition does the source give for `CCc1ccc(C(=O)c2c(N)c(-c3nc(-c4ccc5c(c4)OCO5)cs3)c3ccccn23)cc1` here?
**A.** The max response, negative = inhibition was inactive: -1.97%.

**Q.** How did the Potency turn out when `CCOC(=O)N1CCC(N2C(=O)c3ccccc3C2Nc2ccc3c(C)cc(=O)oc3c2)CC1` (centres undefined) was run?
**A.** The Potency was inconclusive: 35.5 µM [inhibitor, single point].

**Q.** `CN(C)c1ccc(C(CNC(=O)c2ccccc2F)N2CCc3ccccc32)cc1` (centres undefined) was tested. Which Potency did it give?
**A.** The Potency was inconclusive: 15.8 µM [inhibitor, partial curve].

**Q.** How did the Potency turn out when `COc1ccc(C(=O)CCN2CCCCCC2)cc1` was run?
**A.** Its Potency is inconclusive: 17.8 µM [inhibitor, partial curve].

**Q.** `NC(=S)N=Nc1c(O)n(Cc2ccc(F)cc2)c2ccccc12` was tested. Which Potency did it give?
**A.** Its Potency is active: 12.6 µM.

**Q.** `COCCNc1cc(C)c(C#N)c2nc3ccccc3n12` was tested. Which Potency did it give?
**A.** Its Potency is inconclusive: 31.6 µM [inhibitor, single point].

**Q.** Which Potency does the source give for `C=CCNc1oc(-c2cccs2)nc1C#N` here?
**A.** The Potency was inconclusive: 28.2 µM [inhibitor, single point].

**Q.** Which Potency does the source give for `Nc1cc(OC(=O)c2ccco2)nn1S(=O)(=O)c1ccc(F)cc1` here?
**A.** The Potency was active: 25.1 µM.

**Q.** With `Cc1ccc(-c2cc(C(=O)O)c3sc(N4CCCCC4)nc3n2)cc1` as the compound, how does the Potency read?
**A.** Its Potency is inconclusive: 31.6 µM [inhibitor, single point].

**Q.** With `O=C(CNC(=O)c1ccccc1)OC(C(=O)c1ccccc1)c1ccccc1` (centres undefined) as the compound, how does the Potency read?
**A.** The Potency was active: 6.31 µM.

**Q.** With `CCCC1C2CN(C(C)C)CC=C2C(C#N)=C(N)C1(C#N)C#N` (centres undefined) as the compound, how does the Potency read?
**A.** Its Potency is inconclusive: 20 µM [inhibitor, single point].

**Q.** How did the max response, negative = inhibition turn out when `O=C(NCCSc1c(-c2ccc(Cl)cc2)[nH]c2ccccc12)c1ccc(S(=O)(=O)N2CCOCC2)cc1` was run?
**A.** The max response, negative = inhibition was inactive: -1.49%.

**Q.** For `Nc1c(S(=O)(=O)O)cc(S(=O)(=O)O)c2ccc(N=Nc3ccccc3)c(O)c12`, which max response, negative = inhibition is on record?
**A.** The max response, negative = inhibition was inactive: -0.152%.

**Q.** With `CC(C)(C)C(=O)[C@H](C(c1ccccc1)N1CCOCC1)N1CCOCC1` (some centres undefined) as the compound, how does the max response, negative = inhibition read?
**A.** The max response, negative = inhibition was inactive: 5.29%.

**Q.** `Cc1cc(C)c(Nc2cc(S(=O)(=O)O)c(N)c3c2C(=O)c2ccccc2C3=O)c(C)c1` was tested. Which Potency did it give?
**A.** Its Potency is active: 25.1 µM.

**Q.** For `CC(=O)Oc1cc(OC(C)=O)c2c(=O)cc(-c3ccc(OC(C)=O)c(OC(C)=O)c3)oc2c1`, which Potency is on record?
**A.** Its Potency is inconclusive: 39.8 µM [inhibitor, single point].

**Q.** How did the Potency turn out when `O=C(NCCc1ccccn1)c1ccc(COc2ccccc2)o1` was run?
**A.** The Potency was inconclusive: 31.6 µM [inhibitor, single point].

**Q.** Which max response, negative = inhibition does the source give for `Cc1cc(S(=O)(=O)NCc2ccccc2)ccc1OCC(=O)Nc1cccc([N+](=O)[O-])c1` here?
**A.** Its max response, negative = inhibition is inactive: -5.2%.

**Q.** For `Fc1cccc(CSc2nc(NCCc3ccccc3)c3ccccc3n2)c1`, which max response, negative = inhibition is on record?
**A.** Its max response, negative = inhibition is inactive: -0.997%.

**Q.** Which max response, negative = inhibition does the source give for `CCOc1ccccc1NC(=O)N1CCN(Cc2cc(=O)n3nc(-c4ccc(C)cc4)sc3n2)CC1` here?
**A.** Its max response, negative = inhibition is inactive: 4.36%.

**Q.** Which max response, negative = inhibition does the source give for `CCOc1ccccc1NC(=O)CSc1cn(CC(=O)N2CCCCCC2)c2ccccc12` here?
**A.** The max response, negative = inhibition was inactive: -3.38%.

**Q.** `CCCN1CCN(CCCNC(=O)c2cc3c(s2)-c2c(C)cccc2OC3)CC1` was tested. Which Potency did it give?
**A.** The Potency was active: 17.8 µM.

**Q.** Which max response, negative = inhibition does the source give for `COc1ccc(Cc2c(C)nn(-c3nc(C)c(C(=O)Nc4cccc(C(C)=O)c4)s3)c2C)cc1` here?
**A.** The max response, negative = inhibition was inactive: -0.539%.

**Q.** For `CCC(C(=O)O)C1CCC(C)C(C(C)C(O)C(C)C(=O)C(CC)C2OC3(C=CC(O)[C@@]4(CC[C@](C)(C5CC[C@@](O)(CC)C(C)O5)O4)O3)C(C)CC2C)O1` (some centres undefined), which max response, negative = inhibition is on record?
**A.** Its max response, negative = inhibition is inactive: -0.192%.
